# Results from the supplement of paper PMC8728848.
# The other results are listed elsewhere or left out.
# B1: SRA-1 (Homo sapiens), P21757 (protein)
# chain: MEQWDHFHNQQEDTDSCSESVKFDARSMTALLPPNPKNSPSLQEKLKSFKAALIALYLLVFAVLIPLIGIVAAQLLKWETKNCSVSSTNANDITQSLTGKGNDSEEEMRFQEVFMEHMSNMEKRIQHILDMEANLMDTEHFQNFSMTTDQRFNDILLQLSTLFSSVQGHGNAIDEISKSLISLNTTLLDLQLNIENLNGKIQENTFKQQEEISKLEERVYNVSAEIMAMKEEQVHLEQEIKGEVKVLNNITNDLRLKDWEHSQTLRNITLIQGPPGPPGEKGDRGPTGESGPRGFPGPIGPPGLKGDRGAIGFPGSRGLPGYAGRPGNSGPKGQKGEKGSGNTLTPFTKVRLVGGSGPHEGRVEILHSGQWGTICDDRWEVRVGQVVCRSLGYPGVQAVHKAAHFGQGTGPIWLNEVFCFGRESSIEECKIRQWGTRACSHSEDAGVTCTL
# Experiments:
# Experiment in all cases: glycan array binding signal (z-score within array); higher = stronger binding
# Conditions in all cases: glycan notation: IUPAC condensed, linker removed
# [1] = molecular target: Gal(b1-4)GalNAc(b1-3)[Fuc(a1-2)]Gal(b1-4)GlcNAc
# Procedure, shortened: (§1)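 Glycan array binding is given as a within-array Z-score, which can be read as non-binding when negative. The arrays, 3228 of them, came from the Consortium for Functional Glycomics database and were retained only where the protein sequence was available. Z-scores were averaged across arrays of the same protein sequence at different concentrations or buffers and across linkers.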
# Gal(b1-4)Glc = molecular target: Gal(b1-4)Glc
# Procedure, shortened: as §1
# Gal(b1-4)Glc6S = molecular target: Gal(b1-4)Glc6S
# Procedure, shortened: as §1
# Gal(b1-4)GlcNAc = molecular target: Gal(b1-4)GlcNAc
# Procedure, shortened: as §1
# [2] = molecular target: Gal(b1-4)GlcNAc(a1-6)Gal(b1-4)GlcNAc
# Procedure, shortened: as §1
# Gal(b1-4)GlcNAc(b1-2)Man = molecular target: Gal(b1-4)GlcNAc(b1-2)Man
# Procedure, shortened: as §1
# [3] = molecular target: Gal(b1-4)GlcNAc(b1-2)Man(a1-3)Man(b1-4)GlcNAc(b1-4)GlcNAc
# Procedure, shortened: as §1
# [4] = molecular target: Gal(b1-4)GlcNAc(b1-2)Man(a1-3)[Gal(b1-4)GlcNAc(b1-2)Man(a1-6)]Man(b1-4)GlcNAc(b1-4)GlcNAc
# Procedure, shortened: as §1
# [5] = molecular target: Gal(b1-4)GlcNAc(b1-2)Man(a1-3)[Gal(b1-4)GlcNAc(b1-2)Man(a1-6)]Man(b1-4)GlcNAc(b1-4)[Fuc(a1-6)]GlcNAc
# Procedure, shortened: as §1
# [6] = molecular target: Gal(b1-4)GlcNAc(b1-2)Man(a1-3)[Gal(b1-4)GlcNAc(b1-2)Man(a1-6)][Gal(b1-4)GlcNAc(b1-4)]Man(b1-4)GlcNAc(b1-4)[Fuc(a1-6)]GlcNAc
# Procedure, shortened: as §1
# [7] = molecular target: Gal(b1-4)GlcNAc(b1-2)Man(a1-3)[Gal(b1-4)GlcNAc(b1-2)Man(a1-6)][GlcNAc(b1-4)]Man(b1-4)GlcNAc(b1-4)[Fuc(a1-6)]GlcNAc
# Procedure, shortened: as §1
# [8] = molecular target: Gal(b1-4)GlcNAc(b1-2)Man(a1-3)[GlcNAc(b1-2)Man(a1-6)]Man(b1-4)GlcNAc(b1-4)GlcNAc
# Procedure, shortened: as §1
# [9] = molecular target: Gal(b1-4)GlcNAc(b1-2)Man(a1-3)[GlcNAc(b1-4)][Gal(b1-4)GlcNAc(b1-2)Man(a1-6)]Man(b1-4)GlcNAc(b1-4)GlcNAc
# Procedure, shortened: as §1
# [10] = molecular target: Gal(b1-4)GlcNAc(b1-2)Man(a1-3)[Man(a1-6)]Man(b1-4)GlcNAc(b1-4)GlcNAc
# Procedure, shortened: as §1
# [11] = molecular target: Gal(b1-4)GlcNAc(b1-2)Man(a1-6)Man(b1-4)GlcNAc(b1-4)GlcNAc
# Procedure, shortened: as §1
# [12] = molecular target: Gal(b1-4)GlcNAc(b1-2)Man(a1-6)[GlcNAc(b1-2)Man(a1-3)]Man(b1-4)GlcNAc(b1-4)GlcNAc
# Procedure, shortened: as §1
# [13] = molecular target: Gal(b1-4)GlcNAc(b1-2)Man(a1-6)[Man(a1-3)]Man(b1-4)GlcNAc(b1-4)GlcNAc
# Procedure, shortened: as §1
# [14] = molecular target: Gal(b1-4)GlcNAc(b1-2)[Gal(b1-4)GlcNAc(b1-4)]Man(a1-3)[Gal(b1-4)GlcNAc(b1-2)Man(a1-6)]Man(b1-4)GlcNAc(b1-4)GlcNAc
# Procedure, shortened: as §1
# [15] = molecular target: Gal(b1-4)GlcNAc(b1-2)[Gal(b1-4)GlcNAc(b1-4)]Man(a1-3)[Gal(b1-4)GlcNAc(b1-2)[Gal(b1-4)GlcNAc(b1-6)]Man(a1-6)]Man(b1-4)GlcNAc(b1-4)GlcNAc
# Procedure, shortened: as §1
# [16] = molecular target: Gal(b1-4)GlcNAc(b1-2)[Gal(b1-4)GlcNAc(b1-4)]Man(a1-3)[GlcNAc(b1-4)][Gal(b1-4)GlcNAc(b1-2)Man(a1-6)]Man(b1-4)GlcNAc(b1-4)GlcNAc
# Procedure, shortened: as §1
# [17] = molecular target: Gal(b1-4)GlcNAc(b1-2)[Gal(b1-4)GlcNAc(b1-4)]Man(a1-3)[GlcNAc(b1-4)][Gal(b1-4)GlcNAc(b1-2)[Gal(b1-4)GlcNAc(b1-6)]Man(a1-6)]Man(b1-4)GlcNAc(b1-4)GlcNAc
# Procedure, shortened: as §1
# [18] = molecular target: Gal(b1-4)GlcNAc(b1-2)[Gal(b1-4)GlcNAc(b1-6)]Man(a1-6)[Gal(b1-4)GlcNAc(b1-2)Man(a1-3)]Man(b1-4)GlcNAc(b1-4)GlcNAc
# Procedure, shortened: as §1
binder,measurement,setting,value
B1,glycan array binding signal (z-score),[1],-0.216
same,glycan array binding signal (z-score),Gal(b1-4)Glc,-0.576
same,glycan array binding signal (z-score),Gal(b1-4)Glc6S,-0.026
same,glycan array binding signal (z-score),Gal(b1-4)GlcNAc,0.547
same,glycan array binding signal (z-score),[2],0.031
same,glycan array binding signal (z-score),Gal(b1-4)GlcNAc(b1-2)Man,0.245
same,glycan array binding signal (z-score),[3],-0.332
same,glycan array binding signal (z-score),[4],-0.312
same,glycan array binding signal (z-score),[5],-0.1
same,glycan array binding signal (z-score),[6],-0.315
same,glycan array binding signal (z-score),[7],0.095
same,glycan array binding signal (z-score),[8],-0.289
same,glycan array binding signal (z-score),[9],-0.5
same,glycan array binding signal (z-score),[10],-0.474
same,glycan array binding signal (z-score),[11],-0.572
same,glycan array binding signal (z-score),[12],-0.542
same,glycan array binding signal (z-score),[13],-0.142
same,glycan array binding signal (z-score),[14],-0.571
same,glycan array binding signal (z-score),[15],-0.604
same,glycan array binding signal (z-score),[16],-0.198
same,glycan array binding signal (z-score),[17],-0.624
same,glycan array binding signal (z-score),[18],-0.419
